B1: chr5:80437677:80437780:+|CDS|ENSG00000039319|unk|total|mutant (ssRNA)
RNA: GGGAGUUCUACAGUCCGACGAUCUUCCUUUCAGGAAGAUAAGACUGUUAUAAAACAAUCUGCACAAGAAGACUCAAAAAGUUCCGACCUUAAGGAUAAUGAUGUAAUCCAAGAUUCCUCUUCAGCUUUACAUGUUUCCAGUAACAACAGAGGAUUGAGCAUCA
B2: chrX:50386357:50386586:-|CDS|ENSG00000274588|control|control|control (ssRNA)
RNA: GGGAGUUCUACAGUCCGACGAUCAGAAUAUGCAGACAGCAGCAAGGCAGAUAGGAAGCCCUUCAUUCCUCAAAUAGACCACAUAGCCAAGUGCAAGUUGGAGCUGGCUACAAAGGCCCAGAGUCUCCAGAAAUCCUUGAAACUCAACAGAGGAUUGAGCAUCA
B3: chr11:8104520:8104621:+|3pUTR|ENSG00000166402|msi1|FALSE|unique (ssRNA)
RNA: GGGAGUUCUACAGUCCGACGAUCGGCAAUCAGCAAUCAACUGAGGUUUCUUAAUUGUGAUUAUAUUCCUGAGAAUGAAUGAGUAGGAAAGGAAUAAGGAUGUUGUUAUGAUCGCCUGUGGAUUUUGUCCAUUCAUCUCAUGCUCAACAGAGGAUUGAGCAUCA
B4: chr2:96185838:96185916:-|3pUTR|ENSG00000084090|msi1_unk|total|mutant (ssRNA)
RNA: GGGAGUUCUACAGUCCGACGAUCUGGGAGACUAAUCCUUUCCGACCGCCGCUUUUUGAUGCUCAAAACAUCACAUUUAAAUUCCGUUUAAAAAUUUUUUAACUUUUGUGUCAAACCGGAGUUGAGGAAUUGAGCAGGAUUCUACAACAGAGGAUUGAGCAUCA
B5: chr9:128108756:128108857:+|3pUTR|ENSG00000148339|msi1|total|mutant (ssRNA)
RNA: GGGAGUUCUACAGUCCGACGAUCAAGGCAGCAGCCCUGGCUCCUUUCCUUUGGCAGGUUGGGGAAGGGCUUGCCCCCAGCCUCCGGAUUUCAGGGUUUGACUGGGGGCGUGGAGAGAGAGGGAGGAACCUCAAUAACCUUGAACAACAGAGGAUUGAGCAUCA
B6: chr6:43012266:43012370:-|3pUTR|ENSG00000124733|unk|total|mutant (ssRNA)
RNA: GGGAGUUCUACAGUCCGACGAUCGAGACCCACUUUAUUCAGUUCUGUACAUAUGGGGACAUCGGUCCAAGCCCAACCCACCUCCGCAUGUAUCACUCUGUGGAGAAUAAAGCACCCUAUGUACACAGCCAAAAGCCGCACUGCCAACAGAGGAUUGAGCAUCA
B7: chr3:105576037:105576138:+|3pUTR|ENSG00000170017|msi1|FALSE|unique (ssRNA)
RNA: GGGAGUUCUACAGUCCGACGAUCCUCCGUUUAAUAAAAGCUUCCGUAGUGCAUUGGUAUGGAUUAAAUGCAUAAAAUAUUCUUAGACUCGAUGCUGUAUAAAAUAUUAUGGGAAAAAAAGAAAAUACGUUAUUUUGCCUCUAACAACAGAGGAUUGAGCAUCA
B8: chr10:69104613:69104714:+|3pUTR|ENSG00000122862|unk|total|mutant (ssRNA)
RNA: GGGAGUUCUACAGUCCGACGAUCACAUAUUUUACAGGGUGGAGUGUACUAUAUACUAUUACCUUUGAAUGUGUUUGCAGAGCCCGUGGAUGUGUUUGUCUACAAGUAUGAUUGCUGUUACAUAACACCCCAAAUUAACUCCCACAACAGAGGAUUGAGCAUCA
B9: chr10:72011604:72011705:+|3pUTR|ENSG00000122863|msi1|total|mutant (ssRNA)
RNA: GGGAGUUCUACAGUCCGACGAUCCACCUGCCCGGAGACAGAGGGAGCAGCUGAGGCCUCUCUCCACUGGCCGCCAGCCUCCCCCGCACAAGGGGACCAUUCAGCAAUGAGUGUUUACUCAUGUUCUUUCUUGUUGAUGAGUUCCAACAGAGGAUUGAGCAUCA
B10: chr13:35475095:35475222:-|CDS|ENSG00000180660|unk|total|mutant (ssRNA)
RNA: GGGAGUUCUACAGUCCGACGAUCGCUGCAACUUAUCUCCUGCCUGCAGUGCCGGCGGUGUCCCCACUACUUUCUACCGAACUCCGAUCUGUUUCAAGGCAAACCUCACUCAGCUCUGGAAAACGCUGCCAAACAAACGUGGCGCAACAGAGGAUUGAGCAUCA
B11: ENSG00000198589:be:win_251|CDS|ENSG00000198589|bound_else_gene|NA|bound_elsewhere_windowed (ssRNA)
RNA: GGGAGUUCUACAGUCCGACGAUCUCAUUAUCCAAGAAGGUGAGAGUAUUAACUGCAUGGUGGACCUACUGGAAAAAUGUGACAUUACGUGCCAAGCAGAAGUCUGGAGCAUGUUUACAGCCAUUCUGAAGAAAAGCAUACGGACAACAGAGGAUUGAGCAUCA
B12: ENSG00000198589:be:win_6951|CDS|ENSG00000198589|bound_else_gene|NA|bound_elsewhere_windowed (ssRNA)
RNA: GGGAGUUCUACAGUCCGACGAUCGCAAGGAGGCAAAUUUGAUCAUGCAGAUCGAACUUUUUCAUCAAUUUCCAGAGCUUGGCGAAACAGUCAGCGUGAUACCUCUGAUAUUAAGGAGUUGAUCCCUGAAUUUUAUUAUCUCCCCAACAGAGGAUUGAGCAUCA
B13: ENSG00000107863:be:win_2501|CDS|ENSG00000107863|bound_else_gene|NA|bound_elsewhere_windowed (ssRNA)
RNA: GGGAGUUCUACAGUCCGACGAUCAGGUCCCCUCCAUAGCAACAGUUCCUCCUUGCCUCACAACUUCAGCUCCAUUAAUUCGCCGUCAGCUCUCACAUGACCACGAAUCUGUUGGCCCUCCUAGCCUGGAUGCUCAGCCCAACUCAACAGAGGAUUGAGCAUCA
B14: chr3:41225420:41225524:+|CDS|ENSG00000168036|unk|total|mutant (ssRNA)
RNA: GGGAGUUCUACAGUCCGACGAUCCAUGCGUUCUCCUCAGAUGGUGUCUGCUAUUGUACGUACCAUGCAGAAUACAAAUGAUGCCGAAACAGCUCGUUGUACCGCUGGGACCUUGCAUAACCUUUCCCAUCAUCGUGAGGGCUUCAACAGAGGAUUGAGCAUCA
B15: ENSG00000127954:stop:overlap|stop_codon|ENSG00000127954|stop_codon|NA|stop_codon (ssRNA)
RNA: GGGAGUUCUACAGUCCGACGAUCCAUGUGUAGACAACACCCUUACAAGGAUCCGCCAGGGCUGGGAAAGGAACUCAAAACACUAGAAAAAGCAUUGAAUGGAAAAUCAAUAUUUAAAACAAAGUUCAAUUUAGCUGGAUUUCUCAACAGAGGAUUGAGCAUCA
B16: ENSG00000119285:stop:overlap|stop_codon|ENSG00000119285|stop_codon|NA|stop_codon (ssRNA)
RNA: GGGAGUUCUACAGUCCGACGAUCUGUCGCCUUACUUCCUGCUUAAGCCAGCACAGAAGUGUCUGGAGUGGUUGAUUCACAGGUAGCUAAUAGAAUUACAGAAAUAACUAUGGGUUAAUCACUUUGGUCUUGUAAAAAAUUAAGCAACAGAGGAUUGAGCAUCA
B17: chr1:67413009:67413110:-|3pUTR|ENSG00000142864|unk|total|mutant (ssRNA)
RNA: GGGAGUUCUACAGUCCGACGAUCCUGAAUUUUAUCUGUUUUAAAAAUGAACUUCUCCCGCUACACAGAAGUAACAAAUAUGGCCGUCAGUUUUGUAUUCCGAAAUGUAUUGGCCGCAGGGAUGUUUUCAUAAUUUUCAGAGAUCAACAGAGGAUUGAGCAUCA
B18: chr1:119913532:119913650:-|3pUTR|ENSG00000134250|msi1|FALSE|bound_elsewhere (ssRNA)
RNA: GGGAGUUCUACAGUCCGACGAUCUCAUGCUCUUGGCAAUUUCUUUGACUUUCUUUUAAGGGCAGAAGCAUUUUAGUUAAUUGUAGAUAAAGAAUAGUUUUCUUCCUCUUCUCCUUGGGCCAGUUAAUAAUUGGUCCAUGGCUACAACAGAGGAUUGAGCAUCA
B19: chr9:19286831:19286940:+|CDS|ENSG00000137145|unk|FALSE|unique (ssRNA)
RNA: GGGAGUUCUACAGUCCGACGAUCAUUCCAGGAUGUGAAGUGAUCCUAGCCACACCCUAUGGUCGCUGUGCCAAUGUCAACAAUAGUUCAACUACUUCACAAAGAAUCUUUAUCACUUAUCGAAGGGCUCCUCCAGUUCGACCCCAACAGAGGAUUGAGCAUCA
B20: chr17:49055506:49055607:+|3pUTR|ENSG00000159217|unk|FALSE|unique (ssRNA)
RNA: GGGAGUUCUACAGUCCGACGAUCCACUUCCCGGCUGUGGGGGCUGGGGAGCCACUUGUAACAUUUCUGUGCAGAUUUUAUGUUAGCCACUGCUAUGUAAAAGCACGUUCAAAAUGAAUUUCAGCAGAUUAUGUGUUACCAUAACAACAGAGGAUUGAGCAUCA
B21: chr14:81473690:81473791:-|3pUTR|ENSG00000071537|msi1|total|mutant (ssRNA)
RNA: GGGAGUUCUACAGUCCGACGAUCCAGUGUUUUGGAAGUAUGCAUGCAGGCCUAUAAAUGAAAAACACAAUUCUUUAUGUGUACCGCAUGUGUAUUAAUGUCUAACUACAUACGCAAAAACUUCCUUUACAGAGGUUCGGACUACAACAGAGGAUUGAGCAUCA
B22: chr4:113336597:113336699:+|CDS|ENSG00000145362|unk|FALSE|bound_elsewhere (ssRNA)
RNA: GGGAGUUCUACAGUCCGACGAUCACCUAUGCACAGUGAGCUGGUUAAGAAGAUCCUAGGCAACAAAGCUACCUUCAGCCCUAUAGUCACUUUGGAACCUAGAAGAAGAAAAUUCCACAAACCAAUUACCAUGACCAUUCCUGUCAACAGAGGAUUGAGCAUCA

Some of the results follow.

This experiment deals with MSI1 full-length (mouse, UniProt Q61474 1-362). Kind of experiment: nsRBNS (natural sequence RNA bind-n-seq); RBNS binding buffer (assumed for nsRBNS): 25 mM Tris pH 7.5, 150 mM KCl, 3 mM MgCl2, 0.01% Triton X-100, 500 ug/ml BSA, 20 U/ml SUPERase-In, 4 C; UNK is unkempt and MSI1 is Musashi-1; names of the RNAs are library labels; protein concentration not given here; high values mean tight binding.
Chain of UniProt Q61474 (Q61474 whole entry): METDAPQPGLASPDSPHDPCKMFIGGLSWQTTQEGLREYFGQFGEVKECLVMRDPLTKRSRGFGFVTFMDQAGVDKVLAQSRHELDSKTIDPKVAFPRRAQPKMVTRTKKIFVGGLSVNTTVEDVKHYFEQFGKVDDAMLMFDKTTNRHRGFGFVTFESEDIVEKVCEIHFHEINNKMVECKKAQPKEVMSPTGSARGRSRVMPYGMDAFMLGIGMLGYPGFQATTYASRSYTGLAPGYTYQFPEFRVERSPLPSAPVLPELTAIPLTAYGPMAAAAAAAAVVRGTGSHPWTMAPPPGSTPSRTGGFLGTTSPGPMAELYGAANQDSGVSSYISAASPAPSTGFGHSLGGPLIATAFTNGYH
Take B1: the binding signal was 0.25 enrichment R.

For the molecule B2, the binding signal was 1.63 enrichment R.

In turn, B3 yielded a binding signal of 0.299 enrichment R.

Consider B4, for which the binding signal is 0.255 enrichment R.

Consider B5, for which the binding signal came out at 0.404 enrichment R.

B6 displayed a binding signal of 0.482 enrichment R.

For B7, the binding signal is 3.88 enrichment R.

In the case of B8, the binding signal came to 0.281 enrichment R.

With B9, the binding signal worked out at 0.395 enrichment R.

For B10, the binding signal is 0.502 enrichment R.

In the case of B11, the binding signal was found to be 0.303 enrichment R.

As to B12, the binding signal is 0.275 enrichment R.

In turn, B13 yielded a binding signal of 1.07 enrichment R.

As for B14, the binding signal was 0.362 enrichment R.

On to B15, for which the binding signal worked out at 1.89 enrichment R.

On to B16, for which the binding signal was determined as 0.307 enrichment R.

B17: the binding signal came out at 0.413 enrichment R.

B18 showed a binding signal of 5.19 enrichment R.

As for B19, the binding signal was determined as 0.747 enrichment R.

As for B20, the binding signal came out at 0.398 enrichment R.

B21 displayed a binding signal of 0.436 enrichment R.

Regarding B22, the binding signal was 1.42 enrichment R.
